# Hit rate of the full screen: of about 310,000 compounds, about 2,200 (0.71%) showed an effect of 50% or more. The effect is printed as a negative number. Some of the results follow.
# Target: human ether-à-go-go-related gene (hERG) potassium channel (human, UniProt Q12809)
# Test: primary screen, population patch clamp on CHO cells stably expressing hERG
# human ether-à-go-go-related gene (hERG) potassium channel, sequence (Q12809 whole entry, looked up): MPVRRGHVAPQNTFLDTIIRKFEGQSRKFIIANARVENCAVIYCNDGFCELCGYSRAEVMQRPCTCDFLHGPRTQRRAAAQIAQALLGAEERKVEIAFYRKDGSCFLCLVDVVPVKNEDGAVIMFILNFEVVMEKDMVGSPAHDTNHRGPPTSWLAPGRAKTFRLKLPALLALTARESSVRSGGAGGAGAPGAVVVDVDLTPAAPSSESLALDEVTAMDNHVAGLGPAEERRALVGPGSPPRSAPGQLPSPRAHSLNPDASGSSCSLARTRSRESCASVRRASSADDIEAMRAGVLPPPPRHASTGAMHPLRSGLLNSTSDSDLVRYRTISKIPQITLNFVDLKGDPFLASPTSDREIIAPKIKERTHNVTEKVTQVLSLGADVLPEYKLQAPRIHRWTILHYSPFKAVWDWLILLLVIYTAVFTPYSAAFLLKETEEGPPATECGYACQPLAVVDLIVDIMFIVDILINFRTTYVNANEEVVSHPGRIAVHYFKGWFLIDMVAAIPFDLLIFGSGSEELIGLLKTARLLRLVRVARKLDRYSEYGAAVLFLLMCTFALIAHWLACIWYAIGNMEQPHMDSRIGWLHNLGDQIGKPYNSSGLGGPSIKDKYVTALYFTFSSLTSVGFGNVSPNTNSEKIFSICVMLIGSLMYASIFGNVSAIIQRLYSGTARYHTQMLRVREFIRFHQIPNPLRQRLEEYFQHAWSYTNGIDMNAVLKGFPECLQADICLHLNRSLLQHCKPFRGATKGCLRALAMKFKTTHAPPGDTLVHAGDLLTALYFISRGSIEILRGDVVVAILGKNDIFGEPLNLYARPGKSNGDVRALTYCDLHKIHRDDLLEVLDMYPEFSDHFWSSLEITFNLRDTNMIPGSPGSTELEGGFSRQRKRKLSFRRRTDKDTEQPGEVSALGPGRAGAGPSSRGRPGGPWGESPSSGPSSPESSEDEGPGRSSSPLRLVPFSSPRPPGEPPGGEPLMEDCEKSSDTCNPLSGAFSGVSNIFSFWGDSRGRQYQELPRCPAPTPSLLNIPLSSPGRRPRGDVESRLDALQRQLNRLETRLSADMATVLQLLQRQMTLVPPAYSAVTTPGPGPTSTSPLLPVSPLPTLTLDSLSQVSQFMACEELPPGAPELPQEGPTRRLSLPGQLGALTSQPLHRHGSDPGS
row,Compound,"hERG current change (%, negative = inhibition) at 1uM [%]"
1,COc1cc(NC(=O)c2cccc(C)c2)c(OC)cc1NC(=O)CN1CCOCC1,12
2,CN(C)NC(=S)NC1CCS(=O)(=O)C1 (stereo not shown),16.7
3,COC(=O)c1ccc(NC(=O)CCN2C(=O)C3C4CCC(C4)C3C2=O)cc1 (stereo not shown),9.37
4,Cc1ccc(NC(=O)CCC(=O)NNC(=O)COc2ccccc2)cc1C,17.2
5,Cc1cc(C)nc(-n2nc(C)c(C3(O)C(=O)Nc4ccccc43)c2N)n1 (stereo not shown),14.1
6,CCc1ccccc1OCC(=O)OCC(=O)Nc1cc(C)on1,3.58
7,CN(C(=O)COc1cccc(Br)c1)C1CCS(=O)(=O)C1 (stereo not shown),5.44
8,COc1cccc(OCc2nnc(SCC(=O)OCc3ccccc3)o2)c1,-0.282
9,CC(=O)Nc1ccc(SCC(=O)c2cc(C)n(-c3ccccc3F)c2C)cc1,10.9
10,COc1cc(C(=O)[O-])ccc1Cl.[NH4+],13.6
11,CCNC(=O)CN1C(=O)NC2(CCOc3ccccc32)C1=O (stereo not shown),12.8
12,O=C1N=C(N2CCOCC2)S/C1=C/c1ccc(-c2ccc(F)cc2)o1,9.65
13,N=C1C(c2ccccc2)=C(O)CN1CCO,13.7
14,Cc1oc(C)c(S(=O)(=O)NCc2cccs2)c1C(=O)O,8.21
15,COc1ccc(N(CC(=O)NCCc2ccccc2)C(=O)c2csnn2)cc1,4
16,CS(=O)(=O)N1CCN(c2ccccc2NC(=O)c2cccs2)CC1,-21.6
17,COc1ccc(CCNC(=O)CNC(=O)c2ccc(Br)o2)cc1OC,0.286
18,Cc1ccc(NC(=O)c2ccc(CSc3nnnn3C)cc2)cc1,3.97
19,CCOC(=O)C1=C(C)NC(C)=C(C(=O)OCCNC(=O)c2cccnc2)C1c1cccc([N+](=O)[O-])c1 (stereo not shown),1.96
20,COC(=O)CCCC1=CC2=C(c3ccccc3)C(=O)C(C)(OC(=O)C3CCCC3)C(=O)C2=CN1CC(C)C (stereo not shown),10.8
21,Cc1cc(NCCC(C)C)n2nc(C)c(-c3ccccc3)c2n1,13.3
22,Cc1ccc(C(=O)C2=C(O)C(=O)N(Cc3cccnc3)C2c2ccc(Cl)c(Cl)c2)o1 (stereo not shown),12.7
23,COc1ccc(NC(=O)CC2C(=O)N(C)C(=S)N2Cc2ccncc2)cc1 (stereo not shown),9.17

row,Compound,"hERG current change (%, negative = inhibition) at 1uM [%]"
1,O=C1NC(=O)/C(=C/C(=O)N2CCOCC2)S1,8.72
2,NC(=O)c1ccc(NC(=O)c2cccc(Oc3ccccc3)c2)cc1,12.5
3,CN(CC1CCOCC1)C(=O)CC1C(=O)NCCN1Cc1cccc(Oc2ccccc2)c1 (stereo not shown),10.8
4,CCOC(=O)Cc1ccc(NC(=O)c2cccc([N+](=O)[O-])c2)cc1,5.35
5,CC1CN(c2nc3c(c(=O)n(C)c(=O)n3C)n2Cc2c(F)cccc2Cl)CC(C)O1 (stereo not shown),-0.473
6,CCOC(=O)C1CCCN(C(=O)COc2ccc(S(=O)(=O)N(CC)c3ccccc3)cc2)C1 (stereo not shown),-1.42
7,O=C(O)CC1CCC(=C(Cl)Cl)C1 (stereo not shown),1.96
8,CC(C)(C)c1cc(C(=O)N2CCc3ccccc3C2)ccn1,12.1
9,Cc1ccccc1C(=O)Nc1ccccc1N1CCN(C(=O)c2ccccc2)CC1,-3.72
10,CC1CCC(NC(=O)C2CCN(S(=O)(=O)c3ccc4nc5c(c(C(=O)O)c4c3)CC(C)CC5)CC2)CC1 (stereo not shown),16.8
11,Cl.NCCc1c[nH]c2ccc(F)cc12,19.6
12,CCOC(=O)c1nnn(CC(=O)Nc2cccc(F)c2)c1C(=O)OCC,9.32
13,O=C(O)C(=O)O.O=[N+]([O-])c1ccc(OCCN2CCCCCC2)cc1,-74.5
14,Cc1n[nH]c(=O)nc1N1CCc2ccccc2C1,20.4
15,COc1ccc(C2NC(C(=O)O)CS2)cc1COCC(F)(F)F (stereo not shown),7.06
16,CC(NC(=O)COc1ccc(-c2ccccc2)cc1)C1CCCO1 (stereo not shown),11
17,CC(=O)N(C)c1ccc(N2CCOCC2)c2c1C(=O)c1ccccc1C2=O,7.39
18,N#Cc1c(-c2ccco2)ccn(Cc2cccc(F)c2)c1=O,13.2
19,CSc1cccc(CN2CCN(CCC(C)C)C(CCO)C2)c1 (stereo not shown),1.82
20,O=C(NC1CCCCC1)C(c1ccco1)N(Cc1ccco1)C(=O)c1ccco1 (stereo not shown),5.25
21,CCOc1ccccc1N1CCN(Cc2cccc(OC)c2O)CC1,-5.21
22,CCOC(=O)c1ccc(NC(=O)CNS(=O)(=O)c2ccccc2)cc1,11.3
23,COc1ccc(CN(C2CCCC2)S(=O)(=O)c2ccc(-n3cnnn3)c(OC)c2)cc1OC,-4.65

# Source: article PMC4336329 (PLoS ONE, 2015)
